From PubChem BioAssay AID886 (National Center for Advancing Translational Sciences (NCATS), 2007)
Values joined by “and” are separate entries in the source; they are usually repeats but may differ in a detail not shown here. Identical values can stand only once. Among all 73,000 compounds or so, about 2,500 (3.4%) were called active. The inconclusive results got no clear call from the source; some entries with a clear call stand among them for comparison. The call rests on the fitted dose curve; in most records, active means well fitted inhibition curve with a large enough effect; inconclusive means small, poorly fitted or top-dose-only effect; inactive means no such curve, though single readings can be large or run the other way. A potency beside an inconclusive call is a rough fit, not a confirmed value.
Further: nearly all actives have a fitted effect of over 60% in size.
On the % scale 0 is the no-effect control and ±100 the full control effect; potency means the concentration at half of the fitted maximal effect; tags describe the fitted curve by direction and shape.

What follows are molecules tested against 3-hydroxyacyl-CoA dehydrogenase type-2 (Homo sapiens) (UniProt Q99714) (assay: qHTS Assay for Inhibitors of HADH2 (Hydroxyacyl-Coenzyme A Dehydrogenase, Type II)). Conditions: recombinant HADH2, NADH fluorescence, beta-hydroxybutyryl-CoA; activity change, negative = inhibition: at 57.1 µM (top of the series).
UniProt Q99714, sequence (Q99714 whole entry, looked up): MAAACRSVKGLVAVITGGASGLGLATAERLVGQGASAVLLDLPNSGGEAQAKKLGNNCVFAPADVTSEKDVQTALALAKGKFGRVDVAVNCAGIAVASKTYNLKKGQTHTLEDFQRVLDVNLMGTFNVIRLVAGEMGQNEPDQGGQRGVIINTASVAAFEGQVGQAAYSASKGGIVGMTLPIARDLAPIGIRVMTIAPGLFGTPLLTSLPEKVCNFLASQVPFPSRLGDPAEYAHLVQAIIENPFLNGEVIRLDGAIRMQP
UniProt Q99714, sequence (Q99714 whole entry, looked up): as above
Description: Assay Overview: NIH Molecular Libraries Screening Centers Network [MLSCN] NIH Chemical Genomics Center [NCGC] Structural Genomics Consortium [SGC] Grant Number: None HADH2: Hydroxyacyl-Coenzyme A dehydrogenase, type II, was supplied by researchers at the Structural Genomics Consortium, Oxford University lab (PI Udo Oppermann). The mitochondrial enzyme 17-hydroxysteroid dehydrogenase type 10 (HSD17-10) previously classified as type II hydroxyacyl-CoA dehydrogenase (HADH2) catalyzes the NAD+ dependent oxidation of a variety of substrates including acyl-CoAs, androgens and neurosteroids as well as bile acids(Shafqat N, Marschall HU, Filling C, et al. Biochemical Journal. 2003;376(Pt 1):49-60). The role in neurodegeneration by binding to amyloid-peptide led to its identification (Oppermann UC, et al FEBS Letters. 1999;451(3):238-242 and Yan SD, et al. Nature. 1997;389(6652):689-695), and mutations in its gene appear to be causative for 2-methyl-3-hydroxybutyryl-CoA dehydrogenase deficiency (Ofman R, et al. American Journal of Human Genetics. 2003;72(5):1300-1307). The enzyme was produced by E.coli fermentation as His-tagged recombinant for the purpose of X-ray structure determination, and had been mass-spectrometry characterized. Inhibition of HADH2 activity was screened by utilizing beta-hydroxybutyryl coenzyme A as an electron donor and NAD+ as an electron acceptor/cofactor. An increase in the fluorescence intensity due to conversion of NAD+ to NADH was used to measure the enzyme activity.
Assay Protocol: Buffer: 100 mM Tris-HCl pH 9.0, containing 0.01 % Tween-20. Reagents/Controls: Buffer in columns 3 and 4 as negative control (no enzyme). Substrate/cofactor solution: 1 mM NAD+ and 90 uM beta-hydroxybutyryl coenzyme A (Sigma-Aldrich, St. Louis, MO) final concentrations dispensed throughout the plate. Enzyme: 20 nM HADH2 final concentration in columns 1, 2, 5-48. Column 1 is neutral (100% activity). Column 2 contained titration of apomorphine (Sigma-Aldrich, A 4393, PubChem CID 2215, top concentration 500 uM, then 1:2 dilution in duplicate) Assay Steps: Three uL of enzyme were dispensed to 1536-well Greiner black solid bottom plates. Compounds and controls (23 nL) were transferred via Kalypsys PinTool. The plates were incubated for 15 min at room temperature, and then 1 uL of substrate/cofactor solution was added to start the reaction. The plates were immediately transferred to and read every 30 seconds for 4 min on ViewLux High-throughput CCD imager (Perkin-Elmer) using 360 nm excitation and 450 nm emission fluorescence protocol. The fluorescence intensity difference between the last and the first time points was used to compute reaction progress.
For `CC(=O)Nc1nc(=S)ss1`, the Potency was active: 3.16 µM. `CN(C)c1nc(-c2ccoc2)nc2ccccc12` was tested, and the Potency was active: 25.1 µM. For `O=C(CCc1nc(-c2ccccc2F)no1)NCCc1ccccc1Cl`, the Potency was “inactive”. With `CC(=O)Nc1cccc(NC(=O)CSc2nnc(Cc3cccn3C)n2CCc2ccccc2)c1` the Potency was “inactive”. For `COc1ccc(C2C=C(c3ccccc3)Nc3ncnn32)cc1` (stereo not drawn), the Potency was inconclusive: 39.8 µM [inhibitor, single point]. With `c1nc2sc3c(c2c2nnnn12)CCC3` the Potency was inconclusive: 31.6 µM [inhibitor, single point]. With `O=C(CCCc1c[nH]c2ccccc12)N1CCN(c2ccc(N3CCOCC3)nn2)CC1` the Potency was inconclusive: 31.6 µM [inhibitor, single point]. With `COC(=O)[C@H](C)NC(=O)C/C=C\[C@@H](C)[C@@H](CO)OC` the activity change, negative = inhibition was inactive: 1.21% [at 11.4 µM]. For `Cc1ccc2nc(-c3ccccn3)cc(C(=O)N3CCN(c4ncccn4)CC3)c2c1`, the Potency was “inactive”. With `CCOc1cccc(-c2nnc3sc(COc4ccc(OC)cc4)nn23)c1` the Potency was inconclusive: 39.8 µM [inhibitor, single point]. With `COc1ccc(-c2cc3n(n2)CCc2nc4ccccc4n2-3)cc1` the Potency was inconclusive: 6.31 µM [inhibitor, single point]. `O=C(O)/C=C\C(=O)Nc1ccc2c(c1)C(=O)c1cc(F)ccc1-2` was tested, and the activity change, negative = inhibition was inactive: -23.1% [at 11.4 µM]. `COc1ccccc1-c1nc(Nc2ccncc2)c2ccccc2n1` was tested, and the Potency was inconclusive: 39.8 µM [inhibitor, single point]. With `COC(=O)c1ccccc1NC(=O)CSc1nc(NC(=O)c2ccccc2)c2c(C)c(C)oc2n1` the Potency was inconclusive: 25.1 µM [inhibitor, single point]. For `COc1ccc(CCNC(=O)CC2Nc3ccccc3NC2=O)cc1` (stereo not drawn), the Potency was active: 31.6 µM. In the case of `CCOC(=O)Cn1c(C(F)(F)F)nc2nc(Cl)c(Cl)nc21`, the Potency is reported as inconclusive: 3.16 µM [inhibitor, single point]. `CSc1nsc(SC)c1C(=O)OCC(F)(F)F` was tested, and the Potency was inconclusive: 25.1 µM [inhibitor, single point]. For `N#C/C(C(=O)c1ccccc1)=C1/CCCN1`, the activity change, negative = inhibition was inactive: -3.27% [at 11.4 µM]. With `O=C(NCC1CCCO1)c1sc(=S)n2c1[nH]c(=O)c1ccc(C(=O)N3CCCCC3)cc12` (stereo not drawn) the Potency was inconclusive: 25.1 µM [inhibitor, partial curve]. With `NC(=O)c1c(NC(=O)CN2CCOCC2)sc2c1CCC2` the Potency was inconclusive: 39.8 µM [inhibitor, single point]. With `O=C(O)C1=CCCN(CCON=C(c2ccccc2)c2ccccc2)C1` the Potency was “inactive”. `O=C(c1cc2c(=O)n3ccccc3nc2s1)N1CCOCC1` was tested, and the Potency was active: 15.8 µM. In the case of `COc1ccc(OC)c(C2C3CN(C(C)C)CC=C3C(C#N)=C(N)C2(C#N)C#N)c1` (stereo not drawn), the Potency is reported as inconclusive: 39.8 µM [inhibitor, single point]. `O=C1NC(c2ccco2)Nc2sc3c(c21)CCN(Cc1ccccc1)C3` (stereo not drawn) was tested, and the Potency was active: 25.1 µM. For `O=C(N/N=C1/C[C@@H](O)[C@@H](O)[C@@H]2[C@@H]3C(=O)N(c4cccc(Oc5ccccc5)c4)C(=O)[C@H]3CC[C@H]12)OCc1ccccc1`, the activity change, negative = inhibition was inactive: 1.9% [at 11.4 µM]. In the case of `CCN(C(=O)c1ccc(C(C)(C)C)cc1)c1nnc(Cn2nnc3ccccc32)s1`, the Potency is reported as “inactive”. `C1=C(N2CCOCC2)/C(=C/c2nc3ccccc3[nH]2)CC1` was tested, and the Potency was active: 3.98 µM. For `Cc1nc(Nc2ccncc2)c2oc3ccccc3c2n1`, the Potency was inconclusive: 39.8 µM [inhibitor, single point]. In the case of `N#Cc1c(-c2cccs2)cc(-c2cccnc2)nc1N`, the Potency is reported as active: 12.6 µM. For `O=C(CSc1nnc(Cn2c(=O)sc3ccccc32)n1-c1ccccc1)N1CCOCC1`, the Potency was inconclusive: 25.1 µM [inhibitor, single point]. For `Cn1cccc1C(=O)c1ccc(Cl)cc1Cl`, the Potency was inconclusive: 3.98 µM [inhibitor, single point]. `CC1(C)Cc2c(C#N)c(N)n(-c3ccccc3)c(=O)c2CO1` was tested, and the Potency was “inactive”. `CC(/C=N/n1cnnc1)=C\c1ccco1` was tested, and the Potency was inconclusive: 31.6 µM [inhibitor, single point]. In the case of `COC(=O)c1c(S(N)(=O)=O)c2ccccc2n1C`, the Potency is reported as inconclusive: 31.6 µM [inhibitor, single point]. With `Cc1cccn2c(=O)c3cc(C(=O)NCc4cccnc4)c(=N)n(C(C)C)c3nc12` the Potency was inconclusive: 7.94 µM [inhibitor, single point]. In the case of `O=C(Nc1cccnc1)c1ccccc1Oc1ccccc1`, the Potency is reported as inconclusive: 31.6 µM [inhibitor, single point]. `COCCN(CCOC)C(=O)c1ccc(Cc2nc3ccccc3[nH]2)cc1` was tested, and the Potency was inconclusive: 31.6 µM [inhibitor, single point]. In the case of `COc1ccc(OC)c(C2CC(=O)N3CN(c4cccc(Cl)c4C)CSC3=C2C#N)c1` (stereo not drawn), the Potency is reported as active: 1.26 µM. In the case of `CCOC(=O)C1CCN(C(c2cccc(F)c2)c2sc3nc(C)nn3c2O)CC1` (stereo not drawn), the Potency is reported as inconclusive: 3.16 µM [inhibitor, single point]. In the case of `Nc1ccc(O)c(-c2nc3ccccc3s2)c1`, the Potency is reported as active: 31.6 µM. In the case of `COCCN(CCOC)c1nc(C)nc2c1nc(-c1ccccc1)n2CCCN1CCCCC1C` (stereo not drawn), the Potency is reported as “inactive”. With `Cc1nnc(N(C)C(=O)Cc2ccc3c(c2)OCO3)s1` the Potency was inconclusive: 31.6 µM [inhibitor, single point]. For `Cc1c(-c2ccccc2)sc(N)c1C(=O)N1CCOCC1`, the Potency was active: 2 µM. In the case of `O=c1c(O)c(-c2ccc(O)c(O)c2)oc2ccccc12`, the Potency is reported as active: 0.126 µM. In the case of `N#Cc1nc(-c2ccc(OCc3ccccc3)cc2)oc1NCCCn1ccnc1`, the Potency is reported as “inactive”. In the case of `Cc1ccc(C)c(Cc2c(C)nc3c(C(=O)N4CCOCC4)cnn3c2C)c1`, the Potency is reported as inconclusive: 39.8 µM [inhibitor, single point]. `CC1(C)CC(=O)C2=C(C1)N(CCN1CCOCC1)C1=C(C(=O)CC(C)(C)C1)C2c1cccc(Cl)c1` was tested, and the Potency was active: 20 µM. In the case of `COc1ccc(N(CC(=O)NC2CCCC2)C(=O)c2ccc(N3CCCCC3)nc2)cc1`, the Potency is reported as inconclusive: 39.8 µM [inhibitor, single point]. In the case of `O=C(Nc1ccc2oc(-c3ccc(F)cc3)nc2c1)c1ccccc1F`, the Potency is reported as inconclusive: 31.6 µM [inhibitor, single point]. In the case of `CN1C(=O)N(S(=O)(=O)c2ccc(F)c(F)c2F)C(=O)C1(C)C`, the Potency is reported as inconclusive: 39.8 µM [inhibitor, single point]. For `COc1ccc(NC(=O)c2ccccc2Cl)cc1NC(=O)CN1CCOCC1`, the Potency was inconclusive: 7.94 µM [inhibitor, single point]. For `COc1ccc(C2=CC(c3sccc3C)n3nnnc3N2)cc1` (stereo not drawn), the Potency was inconclusive: 25.1 µM [inhibitor, single point]. With `CCCn1c(=O)[nH]c2nc(-c3ccc(S(=O)(=O)O)cc3)[nH]c2c1=O` the Potency was inconclusive: 0.398 µM [inhibitor, full curve, poor fit]. With `CC(=O)Nc1ccc2c(c1)/C(=C/c1ccc([N+](C)(C)C)cc1)c1ccccc1-2` the activity change, negative = inhibition was inactive: -5.81% [at 11.4 µM]. For `CS(=O)(=O)N1CCN(C(=O)c2cc(-c3cccs3)nc3ccccc23)CC1`, the Potency was active: 31.6 µM. In the case of `CCOC(=O)N1CCN(C(=O)CSc2nnc(Cc3ccccc3)o2)CC1`, the Potency is reported as “inactive”. With `CCOC(=O)CCCn1nc(C)n2c(cc3sccc32)c1=O` the Potency was inconclusive: 31.6 µM [inhibitor, single point]. With `O=C(c1cc(-c2ccccc2O)on1)N1CCc2ccccc2C1` the Potency was “inactive”. With `CCN1CCc2nc(N)oc2CC1` the Potency was inconclusive: 39.8 µM [inhibitor, single point]. For `N#Cc1c(N)nc2c(c1-c1ccncc1)CCCCC2`, the Potency was inconclusive: 31.6 µM [inhibitor, single point]. With `Fc1ccc2nc(Nc3nc4c(s3)CCCC4)sc2c1` the Potency was inconclusive: 31.6 µM [inhibitor, single point]. With `Oc1ccc(-c2[nH]ncc2-c2ccc(Cl)cc2)c(O)c1` the Potency was inconclusive: 31.6 µM [inhibitor, single point]. In the case of `CCOC(=O)c1c(NC(N)=O)sc(C)c1C`, the Potency is reported as “inactive”. In the case of `COC(=O)c1c(C)n(-c2ccccc2)c2ccc(O)cc12`, the Potency is reported as inconclusive: 31.6 µM [inhibitor, single point]. In the case of `O=C(Cn1cnc2c(nnn2Cc2ccccc2)c1=O)N1CCCc2ccccc21`, the Potency is reported as “inactive”. With `CCn1cc(C(=O)O)c(=O)c2cc(OC)ccc21` the Potency was inconclusive: 39.8 µM [inhibitor, single point]. `COc1ccc(NC(=O)c2nnn(Cc3cccc(F)c3)c2N)c(OC)c1` was tested, and the Potency was active: 15.8 µM. With `NC(=O)c1cc[n+](CC2=C(C(=O)O)N3C(=O)[C@@H](NC(=O)[C@H](c4ccccc4)S(=O)(=O)[O-])[C@@H]3SC2)cc1` the Potency was active: 3.16 µM and active: 7.94 µM. For `Cc1ccc(N=Cc2ccc(O)cc2O)cc1F`, the Potency was inconclusive: 31.6 µM [inhibitor, single point]. `Cc1ccc(-c2nnc3n2N=C(c2ccccc2Br)CS3)cc1` was tested, and the Potency was inconclusive: 7.94 µM [inhibitor, single point]. `O=C(O)CCCC(=O)Nc1ccc(N2CCCC2)cc1` was tested, and the Potency was inconclusive: 20 µM [inhibitor, partial curve, poor fit]. With `CCOc1ccc(NCc2nnc(SCC(=O)Nc3cc(C)on3)n2-c2ccccc2OC)cc1` the Potency was inconclusive: 12.6 µM [inhibitor, partial curve]. In the case of `CCCCOC(=O)Cc1c(O)c2ccccc2[nH]c1=O`, the Potency is reported as inconclusive: 25.1 µM [inhibitor, single point].
